Screen size: about 310,000 compounds; about 14,000 (4.5%) showed an effect of 50% or more. The effect is printed as a negative number. The list shows a part of the results.
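Note: peak tail current of the secondary pulse compared with the same well before compound.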

In the experiment the target is human ether-à-go-go-related gene (hERG) potassium channel (human, UniProt Q12809). As to the kind of experiment: primary screen, population patch clamp on CHO cells stably expressing hERG.
Sequence of human ether-à-go-go-related gene (hERG) potassium channel (Q12809 whole entry, looked up): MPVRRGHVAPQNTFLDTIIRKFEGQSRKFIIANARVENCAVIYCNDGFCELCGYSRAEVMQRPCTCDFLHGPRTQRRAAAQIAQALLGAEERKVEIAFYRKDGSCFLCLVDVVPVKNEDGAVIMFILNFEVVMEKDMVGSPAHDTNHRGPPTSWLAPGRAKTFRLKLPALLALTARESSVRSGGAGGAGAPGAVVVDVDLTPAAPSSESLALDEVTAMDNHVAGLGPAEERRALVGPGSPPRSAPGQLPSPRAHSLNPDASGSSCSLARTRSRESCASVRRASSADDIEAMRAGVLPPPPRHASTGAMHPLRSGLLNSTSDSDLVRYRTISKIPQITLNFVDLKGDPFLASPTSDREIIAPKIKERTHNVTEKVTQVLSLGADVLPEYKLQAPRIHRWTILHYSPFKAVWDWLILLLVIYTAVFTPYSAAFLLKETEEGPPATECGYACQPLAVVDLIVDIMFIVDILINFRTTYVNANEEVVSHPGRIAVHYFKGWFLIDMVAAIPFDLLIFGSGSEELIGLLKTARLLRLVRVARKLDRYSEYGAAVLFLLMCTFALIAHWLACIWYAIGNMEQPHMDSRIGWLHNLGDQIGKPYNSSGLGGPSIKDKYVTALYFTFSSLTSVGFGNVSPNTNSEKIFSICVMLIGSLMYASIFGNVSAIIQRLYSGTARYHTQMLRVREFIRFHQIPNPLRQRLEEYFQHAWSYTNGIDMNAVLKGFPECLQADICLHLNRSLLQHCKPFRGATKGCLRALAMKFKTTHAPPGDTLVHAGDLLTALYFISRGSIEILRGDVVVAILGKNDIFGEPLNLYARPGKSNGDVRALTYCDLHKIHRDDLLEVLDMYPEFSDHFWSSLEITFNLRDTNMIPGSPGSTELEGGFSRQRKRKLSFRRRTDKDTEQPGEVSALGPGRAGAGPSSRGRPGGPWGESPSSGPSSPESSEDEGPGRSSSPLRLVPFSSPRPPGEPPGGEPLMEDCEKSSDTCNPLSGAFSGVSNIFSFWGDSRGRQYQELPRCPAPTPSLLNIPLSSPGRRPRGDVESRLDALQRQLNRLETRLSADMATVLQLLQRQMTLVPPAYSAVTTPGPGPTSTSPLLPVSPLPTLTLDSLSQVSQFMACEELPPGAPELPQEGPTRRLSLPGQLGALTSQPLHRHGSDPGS
As for `Fc1ccccc1NC(=S)Nn1cnnc1`, the “hERG current change (%, negative = inhibition) at 10uM” value turned out to be 20.2%. Take `Clc1ccc(-c2nc3ccccn3c2CN2CCOCC2)cc1`: the “hERG current change (%, negative = inhibition) at 10uM” value is -14%. Regarding `Cc1ccc(C(=O)CSc2n[nH]c(-c3ccco3)n2)cc1C`, the “hERG current change (%, negative = inhibition) at 10uM” value is recorded as 0.766%. The result for `CCOc1ccc(CCNC(=O)Cn2c(=O)oc3ccccc32)cc1OCC` reads -8.77%; that for `COc1ccc(N(CC(=O)Nc2cccc(N(C)S(C)(=O)=O)c2)S(C)(=O)=O)cc1OC`, 7.44%; that for `CCOC(=O)C1CCN(C(=O)CN(c2ccc(Cl)c(C(F)(F)F)c2)S(C)(=O)=O)CC1`, -29.2%. The result for `CC(C(=O)OCC(=O)c1ccc(F)cc1)N1C(=O)C2C3C=CC(C3)C2C1=O` (stereo not shown) reads -15.4%.

Take `CCc1ccc(OCCCN=C(C)c2c(O)n(C)c(=O)n(C)c2=O)cc1`: the “hERG current change (%, negative = inhibition) at 10uM” value is recorded as -45.8%.

Consider `COc1ccccc1Oc1ccc(N/C=C/C(=O)c2ccc(C)o2)cc1`, for which the “hERG current change (%, negative = inhibition) at 10uM” value was 9.42%. For the molecule `CCO[C@@H]1OC(C(=O)NCc2nc3ccccc3[nH]2)=C[C@H](c2cn(C(C)=O)c3ccccc23)[C@H]1CCCO`, the “hERG current change (%, negative = inhibition) at 10uM” value was -67.2%. With `O=C(Nc1nc2cc3c(cc2s1)OCO3)C1CCCCC1`, the “hERG current change (%, negative = inhibition) at 10uM” value is 12.6%. With `CCOc1ccccc1NC(=O)CN1CCC(NC(=O)c2ccccc2C)CC1`, the “hERG current change (%, negative = inhibition) at 10uM” value is -59.4%. For the molecule `O=C(NCCCCNC(=O)c1ccccc1Br)c1ccccc1Br`, the “hERG current change (%, negative = inhibition) at 10uM” value is given as 0.551%. To `CC(C)(C)C(=O)Nc1ccc(Sc2ccc([N+](=O)[O-])cc2)cc1` belongs -14.8%; to `CCCCCCCC(=O)Nc1cc(C(=O)NCc2ccc(C)cc2)ccc1N1CCC2(CC1)CC(c1ccccc1)=NO2`, 17.2%.

For the molecule `CN(C)c1ccc(NC(=O)CSc2nnc(-c3cnccn3)n2C)cc1`, the “hERG current change (%, negative = inhibition) at 10uM” value came to 20.4%.

Turning to `Cc1ccc(C(=O)N(CC(=O)NC2CCCC2)c2ccccc2Cl)s1`, the “hERG current change (%, negative = inhibition) at 10uM” value is on record as -0.097%. As for `Cc1ccc(C(c2nnnn2Cc2cccs2)N2CCN(Cc3ccc4c(c3)OCO4)CC2)cc1` (stereo not shown), the “hERG current change (%, negative = inhibition) at 10uM” value is listed as -75.3%. With `CC(C)NC(=O)NC(=O)COC(=O)c1ccc(OC(F)(F)F)cc1`, the “hERG current change (%, negative = inhibition) at 10uM” value is reported as -0.35%. Consider `O=C(Nc1cc(C(F)(F)F)ccc1Cl)C(=O)N1CCCCC1`, for which the “hERG current change (%, negative = inhibition) at 10uM” value is recorded as -18.4%.

Regarding `CCOc1ccc(N2C(=O)NC(=O)/C(=C/c3cnc(SC)nc3)C2=O)cc1`, the “hERG current change (%, negative = inhibition) at 10uM” value is on record as 33.8%. Consider `Cc1ccc(Cn2ncn3c(cc4ccccc43)c2=O)cc1`, for which the “hERG current change (%, negative = inhibition) at 10uM” value is 16%. To `C/C(=N\NC(=O)c1nnn(-c2nonc2N)c1-c1ccccc1)c1ccccc1O` belongs 6.98%; to `O=C(N/N=C/c1c(O)n(CCC2=CCCCC2)c(=O)[nH]c1=O)c1ccccc1`, 2.52%; to `COc1cc(O)c(C(CCN2CCCC(C)C2)c2ccc3c(c2)OCO3)c(OC)c1` (stereo not shown), -77.5%. For `COCCCn1c(C)c(C(C)=O)cc(NC(=O)c2ccccc2)c1=O`, the “hERG current change (%, negative = inhibition) at 10uM” value was found to be 3.08%.

For the molecule `COc1ccc(C=O)cc1OC(=O)C1(C)Cc2ccccc2C(=O)O1` (stereo not shown), the “hERG current change (%, negative = inhibition) at 10uM” value is reported as 14.7%.

With `COc1cc(-c2nnc(SCC(=O)Nc3cc(C)on3)n2C)cc(OC)c1O`, the “hERG current change (%, negative = inhibition) at 10uM” value is recorded as -5.05%. The result for `CCn1c(=S)sc2c(=O)n(CC(=O)Nc3ccccc3)c(C)nc21` reads 18.7%; that for `C#C[C@]1(O)CC[C@H]2[C@@H]3CCc4cc(O)ccc4[C@H]3CC[C@@]21C`, 4.05%. On to `CCO[C@H]1OC(C(N)=O)=C[C@@H](C2CC2)[C@@H]1CCCO`, for which the “hERG current change (%, negative = inhibition) at 10uM” value is 13.3%. With `CCc1cc2c(=O)c(-c3nc(C)cs3)coc2cc1O`, the “hERG current change (%, negative = inhibition) at 10uM” value is listed as 4.97%. Take `COc1ccc(N2CC(C(=O)Nc3nccs3)CC2=O)cc1` (stereo not shown): the “hERG current change (%, negative = inhibition) at 10uM” value was determined as 3.06%. The result for `CC(C)[C@H](N)C(=O)NCC1CCC(C(=O)N[C@@H](Cc2ccccc2)C(=O)O)CC1.Cl` (stereo partly shown) reads 9.74%; that for `Cc1ccc2c(CN3CC(C)CC(C)C3)cc(=O)oc2c1` (stereo not shown), -2.89%; that for `Cc1nc2nc(-c3ccccc3)nn2c(C)c1Cl`, 1.5%.

`N#Cc1ccc(CSc2nnc(COc3ccccc3)n2-c2ccccc2)cc1`: the “hERG current change (%, negative = inhibition) at 10uM” value was -52.3%. As for `CC(NC(=O)c1ccccc1F)c1cccc2ccccc12` (stereo not shown), the “hERG current change (%, negative = inhibition) at 10uM” value is recorded as -0.358%. For the molecule `COc1ccc(-c2cn3cccnc3n2)cc1F`, the “hERG current change (%, negative = inhibition) at 10uM” value came to 12.2%. As for `C=CCSc1nnc(NC(=O)CSc2ccccn2)s1`, the “hERG current change (%, negative = inhibition) at 10uM” value worked out at 0.442%.

As for `Cc1cc(C(=O)OC(C(=O)Nc2cccc(C(F)(F)F)c2)c2ccccc2)c(C)o1` (stereo not shown), the “hERG current change (%, negative = inhibition) at 10uM” value is given as -2.76%. To `O=S(=O)(Nc1cccc(-c2cn3c(n2)SCC3)c1)c1cccs1` belongs -22.7%; to `CSc1nc(-c2ccc(F)cc2)cc(=O)[nH]1`, 11%; to `CC(C)=CCN1CCN(Cc2ccc(C#CC(C)(C)O)cc2)CC1CCO` (stereo not shown), 16.3%.

For `COc1ccc(CCNC(=O)c2noc(C)c2[N+](=O)[O-])cc1OC`, the “hERG current change (%, negative = inhibition) at 10uM” value amounted to 11%. As to `COc1ccc(Cn2c(-c3ccccc3C)nc3c(c(=O)c4ccccc4n3C)c2=O)cc1`, the “hERG current change (%, negative = inhibition) at 10uM” value is reported as -0.644%.

As to `COc1ccc(NC(=O)CN(c2ccccc2F)S(=O)(=O)c2ccc(C)cc2)cc1`, the “hERG current change (%, negative = inhibition) at 10uM” value amounted to 10.6%.

Consider `CCCCSc1nnc(-c2ccccc2N)c(=O)[nH]1`, for which the “hERG current change (%, negative = inhibition) at 10uM” value is recorded as -13.9%. The result for `O=C(NC(=S)Nc1ccccc1Br)C1CCC1` reads -30.9%; that for `N=C1c2ccccc2CN1NC(=O)c1ccccc1`, 5.27%. The result for `Cc1cc(OC(=O)N(C)C)n(-c2ccccc2)n1` reads 10.7%; that for `O=C(Cc1ccccc1)Nc1cccc(C(=O)O)c1O`, -5.26%. With `S=C(NC1CCCC1)NC1CCCC1`, the “hERG current change (%, negative = inhibition) at 10uM” value is recorded as 16.7%. For `Cc1ccccc1OC(C)C(=O)N1CCC(Cc2ccccc2)CC1` (stereo not shown), the “hERG current change (%, negative = inhibition) at 10uM” value is reported as -17.5%. On to `CC(C)CN(C(=O)C1CCCCC1)C1CCS(=O)(=O)C1` (stereo not shown), for which the “hERG current change (%, negative = inhibition) at 10uM” value worked out at 10.4%.

`CCNc1nc2c(c(=O)n(Cc3ccccc3)c(=O)n2C)n1Cc1ccccc1`: the “hERG current change (%, negative = inhibition) at 10uM” value is -22.3%. For the molecule `CSCCC(NS(=O)(=O)c1ccccc1F)C(=O)N1CC=C(c2ccccc2)CC1` (stereo not shown), the “hERG current change (%, negative = inhibition) at 10uM” value was found to be 18.6%. The result for `CCOC(=O)c1ccc(NC(=O)CSc2nnc(CNc3ccc(C)cc3)n2C)cc1` reads 1.49%; that for `COc1ccc(CCn2c(=N)c(C(=O)NCC3CCCO3)cc3c(=O)n4cccc(C)c4nc32)cc1OC` (stereo not shown), -80.9%; that for `CC(C)C(C(=O)NCc1ccco1)N(C(=O)CNS(=O)(=O)c1ccc(Cl)cc1)C1CCCC1` (stereo not shown), -8.85%.

Consider `COC(=O)Cc1cc(=O)n(-c2nc3ccccc3[nH]2)[nH]1`, for which the “hERG current change (%, negative = inhibition) at 10uM” value is reported as -23.3%. With `COc1ccc(NC(=O)C2CCCN(c3nc(C)cc(C)n3)C2)cc1` (stereo not shown), the “hERG current change (%, negative = inhibition) at 10uM” value worked out at 12.4%. As to `CN(C)S(=O)(=O)c1ccc(NCC2COc3ccccc3O2)c([N+](=O)[O-])c1` (stereo not shown), the “hERG current change (%, negative = inhibition) at 10uM” value is recorded as -7.72%. For `Cc1cc(-c2ccc(C(C)C)c(S(=O)(=O)N3CCC(C)CC3)c2)on1`, the “hERG current change (%, negative = inhibition) at 10uM” value came to 2.65%. As for `O=C(C1CC1)N1CCN(c2ccc([N+](=O)[O-])cc2)CC1`, the “hERG current change (%, negative = inhibition) at 10uM” value is -61.8%. With `CC(CC1CC(C)(C)OC1=O)C(=O)Nc1ccc([N+](=O)[O-])cc1` (stereo not shown), the “hERG current change (%, negative = inhibition) at 10uM” value is -51.4%. Take `Cc1c(C)c2c(OCC(=O)N3CCC(O)CC3)cc3c(c2oc1=O)CCC(C)(C)O3`: the “hERG current change (%, negative = inhibition) at 10uM” value was -10.3%. On to `CCCCC1(CC(=O)OCC)C(=O)N(c2ccccc2)N(c2ccccc2)C1=O`, for which the “hERG current change (%, negative = inhibition) at 10uM” value was -9.4%. On to `COc1ccc(C(O)CNC(C)C)c(F)c1OC` (stereo not shown), for which the “hERG current change (%, negative = inhibition) at 10uM” value came to 0.97%. Turning to `COc1ccc(-n2c(C)cc(/C=C(\C#N)C(=O)NCc3ccco3)c2C)cc1`, the “hERG current change (%, negative = inhibition) at 10uM” value is reported as -5.18%. `CC(Oc1ccccc1)C(=O)NCc1cccnc1` (stereo not shown): the “hERG current change (%, negative = inhibition) at 10uM” value was determined as 10.5%. For the molecule `CN1C(=O)NC(=O)/C(=C/c2ccc([N+](=O)[O-])o2)C1=O`, the “hERG current change (%, negative = inhibition) at 10uM” value was found to be 12.9%. With `CC(C)C(=O)Nc1ccc(N2CCCC2)cc1`, the “hERG current change (%, negative = inhibition) at 10uM” value is listed as 21.5%. Turning to `CCCCc1cc(=O)oc2cc(C)cc(OC(C)C(=O)NCc3cccnc3)c12` (stereo not shown), the “hERG current change (%, negative = inhibition) at 10uM” value is reported as -19.7%.

As to `Cc1ccc(C(N)=O)cc1S(=O)(=O)Nc1cccc(C)c1C`, the “hERG current change (%, negative = inhibition) at 10uM” value is -5.98%. In the case of `Cc1nc(C(=O)N2CCC(n3nccc3NC(=O)Nc3ccccc3Cl)CC2)cs1`, the “hERG current change (%, negative = inhibition) at 10uM” value amounted to 10.9%. In the case of `CN(C)CCC(=O)N1c2ccccc2Sc2ccc(Cl)cc21.Cl`, the “hERG current change (%, negative = inhibition) at 10uM” value is on record as -6.12%. Regarding `Cc1ccc(N(Cc2ccccc2)C(=O)c2ccc(Cl)c(S(=O)(=O)N3CCOCC3)c2)cc1`, the “hERG current change (%, negative = inhibition) at 10uM” value is -70.3%. The result for `CCC(CC)NC(=O)CO/N=C/c1ccc(Cl)cc1Cl` reads 10.2%; that for `COc1ccc(OCC(=O)N2CCN(C(=O)c3cccc(F)c3)CC2)cc1`, -7.41%; that for `COc1ccc(-c2cc(C(=O)N3CCN(c4ncccn4)CC3)c3ccccc3n2)cc1`, -33.4%. The result for `CCN(CC)CCNCc1cc(Cl)ccc1OCc1ccccc1F.Cl` reads -72.8%. With `CC1CCC(C(C)C)C(OC(=O)COC(=O)c2ccc(=O)[nH]c2)C1` (stereo not shown), the “hERG current change (%, negative = inhibition) at 10uM” value is -8.28%.

For the molecule `Cc1ccc(C(=O)C(C)OC(=O)Cn2[nH]c(=O)c3ccccc3c2=O)cc1C` (stereo not shown), the “hERG current change (%, negative = inhibition) at 10uM” value amounted to 12%. `COc1ccc(N=C2NC(=O)/C(=C/c3ccco3)S2)cc1`: the “hERG current change (%, negative = inhibition) at 10uM” value stood at 19.1%. Regarding `CCCCOc1ccc(C(=O)NCC(=O)N2CC(C)CC(C)C2)cc1` (stereo not shown), the “hERG current change (%, negative = inhibition) at 10uM” value was -26.7%. Take `CC1CCN(Cc2c(C(=O)N/N=C/c3ccccc3O)nnn2-c2nonc2N)CC1`: the “hERG current change (%, negative = inhibition) at 10uM” value stood at 14.6%. Take `CCCn1c2ccccc2c2nnc(SCC(=O)OCC)nc21`: the “hERG current change (%, negative = inhibition) at 10uM” value is listed as -16.9%.

Source of the values: paper PMC4336329 (PLoS ONE, 2015).
